Data from PubChem BioAssay AID1347055 (National Center for Advancing Translational Sciences (NCATS), 2019).
Out of some 54,000 compounds screened, about 120 (0.22%) were called active. The shares of active, inactive and inconclusive entries below differ from those in the screen. The call rests on the fitted dose curve; in most records, active means well fitted inhibition curve with a large enough effect; inconclusive means small, poorly fitted or top-dose-only effect, or effect the other way; inactive means flat fitted curve, though single readings scatter. Potencies of inconclusive entries are left out as doubtful fits.

Biological target: Fumarate hydratase, mitochondrial (Homo sapiens) (UniProt P07954)
Assay: Identification of activators of human fumarate hydratase by quantitative high-throughput screening; further: the screen sought activators but most active calls are inhibition curves; nearly all actives have a fitted effect of over 45% in size
Settings: FH coupled MDH/diaphorase resazurin fluorescence, 15 min; activity change, negative = inhibition: at 79.9 µM (top of the series)
On the % scale 0 is the no-effect control and ±100 the full control effect; potency means the concentration at half of the fitted maximal effect; tags describe the fitted curve by direction and shape.

UniProt P07954, sequence (P07954 whole entry, looked up): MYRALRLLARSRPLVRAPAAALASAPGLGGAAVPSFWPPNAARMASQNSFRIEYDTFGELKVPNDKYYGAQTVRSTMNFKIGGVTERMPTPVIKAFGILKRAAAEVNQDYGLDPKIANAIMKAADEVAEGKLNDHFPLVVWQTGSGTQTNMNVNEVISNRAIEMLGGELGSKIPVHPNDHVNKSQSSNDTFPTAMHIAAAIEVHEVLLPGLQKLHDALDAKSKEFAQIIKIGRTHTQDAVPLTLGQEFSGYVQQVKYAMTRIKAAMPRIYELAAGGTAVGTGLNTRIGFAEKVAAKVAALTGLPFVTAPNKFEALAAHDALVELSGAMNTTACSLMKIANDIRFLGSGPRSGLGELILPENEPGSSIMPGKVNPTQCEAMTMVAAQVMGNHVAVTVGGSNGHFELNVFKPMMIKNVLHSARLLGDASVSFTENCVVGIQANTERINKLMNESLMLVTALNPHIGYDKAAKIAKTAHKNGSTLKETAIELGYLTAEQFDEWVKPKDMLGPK

SMILES	Potency	activity change, negative = inhibition
CSc1ccc(-c2nc3cccc(C)n3c2Nc2ccc3c(c2)OCO3)cc1	inconclusive [inhibitor, partial curve, poor fit]	–
Cc1[nH]c2ccccc2c1C1(O)C(=O)N(Cc2ccccc2)c2ccc(Cl)cc21 (configuration not stated)	inconclusive [inhibitor, single point]	–
CC(=O)N1CCCc2cc(S(=O)(=O)N3CCCC(C(=O)NC(C)C)C3)ccc21 (configuration not stated)	inconclusive [inhibitor, partial curve, poor fit]	–
O=C(CCc1ccccc1)N1CCC(O)(Cn2cnc3cc(Cl)ccc3c2=O)CC1	–	inactive: -0.708%
CCc1ccc2occ(CC(=O)Nc3ccc(OC)c(Cl)c3)c2c1	inconclusive [inhibitor, single point]	–
CC1(C)CC[C@]2(C(=O)O)CC[C@]3(C)C(=CCC4[C@@]5(C)CC[C@H](O[C@@H]6O[C@H](CO)[C@@H](O)[C@H](O)[C@H]6O[C@@H]6O[C@H](CO)[C@@H](O)[C@H](O)[C@H]6O)[C@@](C)(CO)C5CC[C@]43C)[C@@H]2C1 (some centres not stated)	–	inactive: 1.14% [at 20.6 µM]
COc1ccc(-c2nnc(SCC(=O)Nc3c(C)cccc3C)nc2-c2ccc(OC)cc2)cc1	inconclusive [inhibitor, partial curve, poor fit]	–
CCOC(=O)c1ccc(NC(=O)c2oc3c(c2C)-c2nn(Cc4ccccc4Cl)cc2CC3)cc1	inconclusive [inhibitor, partial curve, poor fit]	–
O=C(CSc1nc2c([nH]c3ccccc32)c(=O)n1-c1ccccc1F)Nc1cccc(C(F)(F)F)c1	inconclusive [inhibitor, single point]	–
COC(=O)CCN(c1ccccc1)C(CNS(=O)(=O)c1ccccc1)c1ccccc1 (configuration not stated)	inconclusive [inhibitor, partial curve, poor fit]	–
Cc1ccccc1Nc1nc(N)c(C(=O)c2ccccc2Cl)s1	inconclusive [inhibitor, partial curve, poor fit]	–
CCOc1ccc(-n2cc(-c3ccccc3)c3c(NC4CCCC4)ncnc32)cc1	inconclusive [inhibitor, partial curve, poor fit]	–
COc1ccc(/C=C/C(=O)O[C@@H]2[C@@H](O)[C@H](C)O[C@@H](OC3C4C=COC(O[C@@H]5O[C@H](CO)[C@@H](O)[C@H](O)[C@H]5O)C4C4(CO)OC34)[C@@H]2O)cc1OC (some centres not stated)	–	inactive: 8.16% [at 20.6 µM]
C[C@@H]1CC[C@]2(C)C3(C)CC[C@@]2(OC3=O)[C@@]12C[C@H](c1ccoc1)OC2=O	–	inactive: 3.07% [at 53.3 µM]
Cc1ccc(N(C)C(CNS(=O)(=O)c2ccccc2)c2ccccc2)cc1 (configuration not stated)	inconclusive [inhibitor, single point]	–
COc1ccccc1NC(=O)CSc1ccc(-c2ccccn2)nn1	inconclusive [inhibitor, single point]	–
Cc1cccc(C(=O)Nc2cc3nn(-c4ccc(C(C)C)cc4)nc3cc2C)c1	–	inactive: 1.49%
CCOc1ccc(NC(=O)CC2C(=O)N(c3ccc(OC)cc3)C(=O)N2C2CCCCC2)cc1 (configuration not stated)	inconclusive [inhibitor, single point]	–
CC1CCC2C(C)(C)C(O)CCC2(C)C12Cc1c(O)cc3c(c1O2)C(N)=NC3 (configuration not stated)	–	inactive: 1.13% [at 53.3 µM]
Cc1nn(-c2ccccc2)c2sc(C(=O)Nc3cccc(Cl)c3)cc12	inconclusive [inhibitor, partial curve]	–
CCC(=O)N1CCc2cc(CNS(=O)(=O)c3ccc(C(C)C)cc3)ccc21	–	inactive: -18.3%

SMILES	Potency	activity change, negative = inhibition
Cc1nc2c3ccccc3nc(NNC(=O)CCC(=O)N3CCN(c4cc(Cl)ccc4C)CC3)n2n1	inconclusive [inhibitor, single point]	–
Cc1cccc(N2CCN(C(=O)c3cnn(-c4ccc(F)cc4F)c3C3CCN(C(=O)OC(C)(C)C)CC3)CC2)c1C	inconclusive [inhibitor, partial curve, poor fit]	–
Cc1ccc(NC(=O)Nc2cn(C)c(=O)c3ccccc23)c(Cl)c1	active: 28.2 µM [activator]	–
Cc1ccc(C2C=C(c3ccccc3)Nc3nc(NS(=O)(=O)c4ccc(C)cc4)nn32)cc1 (configuration not stated)	inconclusive [inhibitor, single point]	–
O=C(CCCCCN1CCN(c2ccccc2-c2ccccc2)CC1)NC1CCCc2ccccc21 (configuration not stated)	inconclusive [inhibitor, partial curve]	–
COc1cc(NC(=O)C(CC(C)C)N2Cc3ccccc3C2=O)cc(OC)c1 (configuration not stated)	–	inconclusive: -32.2% [inhibitor]
CCC(Oc1ccccc1)C(=O)Nc1cc(-c2ccccc2F)nn1-c1ccccc1 (configuration not stated)	inconclusive [inhibitor, partial curve, poor fit]	–
CCOc1ccc(/C=C/C(=O)Nc2sc3c(c2C(=O)OC)CCCC3)cc1	–	inactive: 2.53%
CCc1nn(CC(=O)NCCc2ccc(OC)c(OC)c2)c(=O)c2cc3occc3n12	–	inactive: -3.76%
CN(CCCN1c2ccccc2CCc2ccccc21)CC(=O)c1ccc(Cl)cc1	–	inactive: -11.1% [at 53.3 µM]
COc1ccc(NC(=O)c2cccn2-c2nnc(N3CCCCC3)s2)c(OC)c1	–	inactive: -5.29%
CN(C)c1cc(NC(=O)CNC(C)(C)C)c(O)c2c1C[C@@H]1C[C@H]3[C@H](N(C)C)C(=O)C(C(N)=O)=C(O)[C@@]3(O)C(=O)C1=C2O	–	inactive: -9.04% [at 53.3 µM]
COc1ccc(-n2nnc(-c3nsc(NC(=O)c4cccc(C)c4)n3)c2C)cc1OC	inconclusive [activator, partial curve]	–
COc1ccccc1Nc1nc(N)nc(N)c1S(=O)(=O)c1ccccc1	inconclusive [inhibitor, single point]	–
CSc1ccc(/C=C/c2nc3ccccc3n2S(=O)(=O)c2ccc(Br)cc2)cc1	–	inactive: -24.1%
CCOC(=O)c1cccc(NS(=O)(=O)c2ccc(-c3coc(C)n3)cc2)c1	–	inactive: -20.2%
COc1ccc(CN2C(=O)C(=O)c3cc(S(=O)(=O)N4CCC[C@H]4COc4cccnc4)ccc32)cc1	–	inactive: -1.36%
COc1cccc(NC(=O)Cn2cc(S(=O)(=O)Cc3ccccc3F)c3ccccc32)c1	inconclusive [inhibitor, partial curve, poor fit]	–
CCn1nc(C)c2c(-c3ccccc3)cc(=O)n(C(C)C(=O)NCc3ccccc3OC)c21 (configuration not stated)	inconclusive [inhibitor, single point]	–
CCOCc1cc(CN2CCN(c3ccccc3OC)CC2)c(O)c2ncccc12	inconclusive [activator, partial curve, poor fit]	–
COc1ccc(-c2c(C)c3ccc(O)c(CN4CCCC(C)C4)c3oc2=O)cc1OC (configuration not stated)	–	inactive: 0.519%

SMILES	Potency	activity change, negative = inhibition
Cc1ccc(C)c(Nc2nnc(-c3ccc(C)c(S(=O)(=O)NCC4CCCO4)c3)c3ccccc23)c1 (configuration not stated)	inconclusive [inhibitor, single point]	–
COc1ccc(-c2nnc(SCC(=O)Nc3ccc(C)c(C)c3)s2)cc1	–	inactive: 6.34%
CCOc1ccc(C(=O)NCCc2csc(-c3cccc(F)c3)n2)cc1OCC	–	inactive: -10.5%
CC(CO[C@@H]1O[C@H](COC(=O)/C=C/c2ccc(O)c(O)c2)[C@@H](O)[C@H](O)[C@H]1O)C1(O)COC(=O)C1 (some centres not stated)	–	inactive: -1.59% [at 53.3 µM]
CNC(=O)c1ccc2c(c1)N(Cc1cc(C)ccc1C)C(=O)c1ccccc1S2	inconclusive [inhibitor, single point]	–
COc1cc(C(=O)NCCc2csc(-c3ccc(Cl)cc3)n2)cc(OC)c1OC	inconclusive [inhibitor, partial curve, poor fit]	–
COc1ccc(Cl)c(Nc2nc3ccccc3nc2NS(=O)(=O)c2cccc(NC(=O)C(C)(C)N)c2)c1	–	inactive: -26.8%
CCn1cc(C(=O)NCCc2ccc(OC)c(OC)c2)c(=O)c2cc(S(=O)(=O)N(C)C3CCCCC3)ccc21	inconclusive [inhibitor, single point]	–
CC1CCCN(CCCNC(=O)c2ccc3c(c2)N(Cc2ccc(Cl)cc2)C(=O)c2ccccc2S3(=O)=O)C1 (configuration not stated)	–	inactive: -5.75%
Cc1cc(=O)n(Cc2ccccc2)c2c1c(C)nn2C	–	inactive: -28.5%
O=C(Cn1c(=O)n(Cc2ccccc2)c(=O)c2sc3ccccc3c21)Nc1ccccc1	–	inactive: 20.7%
Cc1cc(=O)n(Cc2ccc(Cl)cc2)c2c1c(C)nn2-c1ccccc1	inconclusive [inhibitor, partial curve, poor fit]	–
CCCn1c(=O)c2sccc2n2c(CCCC(=O)NCc3ccccc3)nnc12	–	inactive: -0.235%
O=C(Nc1cccc(-c2nc3ccccc3o2)c1)C(F)(F)F	inconclusive [inhibitor, partial curve, poor fit]	–
COc1ccc(CNC(=O)Nc2cn(CC(C)C)c(=O)c3ccccc23)cc1	inconclusive [activator, partial curve]	–
Cc1cc(Cl)ccc1OCC(=O)N1CCC(c2nc3ccccc3s2)CC1	inconclusive [inhibitor, partial curve]	–
CC(C)c1cccc2c(-c3ccccc3)cc(-c3ccc(-c4ccc(C(=O)O)cc4)[nH]3)nc12	inconclusive [inhibitor, single point]	–
Cc1ccc2cccc(NC(=O)C(C)Oc3ccc(Cl)cc3Cl)c2n1 (configuration not stated)	inconclusive [inhibitor, single point]	–
CCOc1ccc(C(c2c(O)cc(C)n(Cc3ccco3)c2=O)N2CCCCC2)cc1 (configuration not stated)	–	inconclusive: -36.6% [inhibitor]
COc1ccc(N2CCN(C(c3ccccc3F)c3sc4nc(-c5ccco5)nn4c3O)CC2)cc1 (configuration not stated)	inconclusive [inhibitor, single point]	–
